In PubChem BioAssay AID504832 (National Center for Advancing Translational Sciences (NCATS), 2011):
About 18,000 (5.8%) of roughly 310,000 compounds were called active. The shares of active, inactive and inconclusive entries below differ from those in the screen. Calls follow the shape of the dose curve; as a rule, active = well fitted inhibition curve with a large enough effect; inconclusive = small, poorly fitted or top-dose-only effect, or another doubt; inactive = no such curve, though single readings can be large or run the other way. Potencies of inconclusive entries are left out as doubtful fits.

assay: Primary qHTS for delayed death inhibitors of the malarial parasite plastid, 48 hour incubation; settings: P. falciparum luciferase growth in erythrocytes; series mostly up to 28.7 µM
Method in brief: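 Growth was read as firefly luciferase luminescence after a 48 h, 37 C, 5% CO2 exposure of compounds to reporter-bearing P. falciparum cultures (0.1% parasitemia, 2% hematocrit final) in Albumax-supplemented RPMI 1640.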
Potency is read from the fitted curve at half-maximal effect; tags tell the direction and shape of the fitted curve.

| SMILES | Potency |
| --- | --- |
| CCOC(=O)c1ccc(N2C(=O)CC(N3CCN(C/C=C/c4ccccc4)CC3)C2=O)cc1 (centres undefined) | inconclusive [inhibitor, partial curve, poor fit] |
| COC(=O)c1ccccc1NC(=O)c1cccnc1 | inconclusive [inhibitor, full curve, poor fit] |
| C/C(CC(=O)NC12CC3CC(CC(C3)C1)C2)=N\NC(=O)c1cnccn1 | inactive |
| Cc1ccc(-c2sc(-c3cccnc3)nc2CC(=O)O)cc1 | inconclusive [inhibitor, partial curve, poor fit] |
| CCCCC1=CC2=C(c3ccco3)C(=O)C(C)(OC(=O)c3ccc(OC)cc3)C(=O)C2=CN1CCCN(CC)CC (centres undefined) | inconclusive [inhibitor, partial curve] |
| CCn1c(=NC(=O)c2ccc(S(=O)(=O)N(C)C)cc2)sc2cccc(OC)c21 | active: 8.28 µM |
| Cc1cc(C)c(CN2CCC(n3nccc3NC(=O)C3CCOC3)CC2)cc1C (centres undefined) | inactive |
| Cc1cc(N2CCN(c3cccc(C)c3C)CC2)nc(-c2ccccc2)n1 | inconclusive [inhibitor, single point] |
| COc1cccc(Cn2nnc3c(=O)[nH]c(C4CCCN(C(=O)c5ccccc5Cl)C4)nc32)c1 (centres undefined) | inconclusive [inhibitor, full curve, poor fit] |
| CCN(CC)CCNC(=O)c1[nH]c2ccc(OCc3ccccc3)cc2c1C | inconclusive [inhibitor, full curve, poor fit] |
| CN(C)c1ccc(C(=O)Nc2ccc(S(=O)(=O)NC3=NCCCCC3)cc2)cc1 | inconclusive [inhibitor, partial curve, poor fit] |
| Cc1ccc(NCC(=O)N/N=C/c2cccn2C)cc1 | inconclusive [inhibitor, single point] |
| CCc1nnc(NC(=O)CCC(=O)NCc2ccc(C)cc2)s1 | inconclusive [inhibitor, single point] |
| O=C(CCCCCN1C(=O)CCC1=O)Nc1ncn[nH]1 | inactive |
| CC(C)(C)c1ccc2c(c1)N(CC(=O)N1CCOCC1)C(=O)CO2 | inactive |
| CCOc1ccc(S(=O)(=O)n2cc(-c3ccccc3)c(N)n2)cc1 | inconclusive [inhibitor, partial curve, poor fit] |
| Cc1ccc(S(=O)(=O)c2nnn3c2nc(N2CCOCC2)c2ccccc23)c(C)c1 | inconclusive [inhibitor, partial curve] |
| COc1ccc(S(=O)(=O)CCC(=O)Nc2c(C)cccc2C)cc1 | inconclusive [inhibitor, full curve, poor fit] |
| O=C(c1cccc(C(F)(F)F)c1)C1CCCN(C(=O)CCc2cnccn2)C1 (centres undefined) | inactive |
| CC1CC(C)CN(C(=O)Cn2c(-c3nonc3N)nc3ccccc32)C1 (centres undefined) | inconclusive [inhibitor, single point] |
| C[C@@H](CN1C2=NC[C@H](Cc3ccc(O)cc3)N2C[C@H]1Cc1ccc(O)cc1)NC(=O)CCC1CCCCC1 | active: 7.38 µM |
| Cc1ccc(OCCC(=O)Nc2ccc(C)c(S(=O)(=O)N3CCOCC3)c2)cc1 | inconclusive [inhibitor, single point] |

| SMILES | Potency |
| --- | --- |
| O=C(NCCc1ccc(Cl)cc1)c1ccc2ccccc2n1 | inactive |
| Cc1cc(NC(=O)COc2ccc(C)c(C)c2)no1 | inactive |
| Cc1ccc(C(=O)c2c(NC(=O)c3ccccc3)sc(C)c2C)cc1 | inconclusive [inhibitor, single point] |
| Cc1cc(SCC(=O)OCC(=O)c2c(N)n(C)c(=O)n(C)c2=O)c(C)cc1Br | inactive |
| CCOC(=O)N1CCN(C(=O)c2ccc3c(SCC(=O)O)c4c(nc3c2)CCCC4)CC1 | inactive |
| O=c1[nH][nH]c2c(N=Cc3ccccc3O)ccc(F)c12 | inconclusive [inhibitor, partial curve] |
| O=C(C1=C[C@H](C2CC2)C[C@H](OCCCCO)O1)N1CCN(Cc2ccc3c(c2)OCO3)CC1 | inconclusive [inhibitor, partial curve, poor fit] |
| COc1cc2c(cc1OC)C(SC)=NC1(CCCC1)C2 | active: 10.4 µM |
| CC(C)(C)NC(=O)C1Cc2ccccc2CN1S(=O)(=O)c1ccc(F)cc1 (centres undefined) | inconclusive [inhibitor, single point] |
| O=[N+]([O-])c1ccc(OCc2cnc(Cl)s2)cc1 | inactive |
| COc1ccc(CC(=O)Nc2ccc(N3CCOCC3)cc2)cc1S(=O)(=O)N1CCOCC1 | inactive |
| CCC(C)NC(=O)c1ccc(CSc2nc3ccncc3n2Cc2ccc(F)cc2)cc1 (centres undefined) | inconclusive [inhibitor, single point] |
| COc1ccc(C(=O)OCC(=O)Nc2ccc3[nH]c(=O)[nH]c3c2)cc1 | inactive |
| Cc1ccc(S(=O)(=O)Cn2nnnc2CN2CCN(C(=O)c3ccco3)CC2)cc1 | inconclusive [inhibitor, partial curve, poor fit] |
| CCCCn1c(N)c(N(CC(C)C)C(=O)c2cccc(S(=O)(=O)N(C)c3ccc(C)cc3)c2)c(=O)[nH]c1=O | active: 6.57 µM |
| Cc1ccccc1NC(=O)CSc1nc(-c2cccs2)nc2cc(=O)[nH]n12 | inconclusive [inhibitor, single point] |
| CN(C)CCNc1ncnc2sc(-c3ccccc3)cc12 | inconclusive [inhibitor, single point] |
| O=C(OCc1c(F)cccc1Cl)c1cccc(S(=O)(=O)N2CCOCC2)c1 | inconclusive [inhibitor, single point] |
| CC1CCCCN1C(=S)Nc1ccc2nc3n(c(=O)c2c1)CCCCC3 (centres undefined) | inactive |
| Cc1ccc(S(=O)(=O)/N=C2/C=C(Sc3ncn[nH]3)C(=O)c3ccccc32)cc1 | active: 1.47 µM |
| Oc1cccc(O)c1O | inconclusive [inhibitor, single point] |
| CCOc1ccccc1-c1cc(-c2n[nH]c(=S)n2CC)c2ccccc2n1 | active: 1.85 µM |
